Assay results from the supplement of paper PMC3334620.
In all, about 33,000 sequences were measured (“E-score (-0.5 to 0.5)”: median about -0.056, highest 2% from about 0.38 on). The list shows a part of the results.

These sequences were tested against Stb4 (UniProt P50104) (assay: PBM E-score (8-mer binding enrichment) (E-score (-0.5 to 0.5)); higher = stronger / more preferred TF binding; most listed sequences are background and not binding sites). Details: protein concentration: 200 nM; construct: GST-DNA-binding domain.
Experimental: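 Universal 'all 10-mer' protein binding microarrays (Agilent AMADID 015681) probed with GST-tagged S. cerevisiae TFs (full-length or DBD) made by in vitro transcription/translation (PURExpress), about 100-200 nM. Bound TF was detected with fluorescent anti-GST. Each ungapped 8-mer (which stands for itself and its reverse complement) is scored by the PBM enrichment score (E-score), a modified Wilcoxon-Mann-Whitney statistic from -0.5 to +0.5, computed with the Universal PBM Analysis Suite. Scale: above 0.35 generally sequence-specific binding.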

| Sequence | PBM E-score |
| --- | --- |
| GTGGTGTA | -0.243 |
| AATAAATA | 0.183 |
| GGTGAAAA | 0.12 |
| CGCAGAGA | -0.331 |
| AGCTATTC | -0.0398 |
| ACTTGGCT | -0.0855 |
| CACCCGAG | 0.448 |
| GGCGCTCA | -0.0132 |
| CTAACAGA | -0.114 |
| GATCTCCC | 0.117 |
| ATGCAGTC | -0.253 |
| ACAACAAT | -0.041 |
| ACGGTTTC | 0.0328 |
| GCACATAC | 0.0239 |
| ACGTCTCA | -0.16 |
| CACGTGAG | -0.164 |
| CCGCAAAG | 0.015 |
| GCCCGATA | 0.0754 |
| CATGGATC | 0.0289 |
| AGTATGCC | 0.0039 |
| CTAGCTCA | -0.294 |
| AGGAGCAA | -0.135 |

| Sequence | PBM E-score |
| --- | --- |
| CTGGTCGA | -0.0446 |
| GATAGTTA | 0.0424 |
| AATTCGAA | -0.191 |
| ACGTCAGC | -0.0941 |
| GCTATGAC | 0.0527 |
| AGCCAATC | 0.0316 |
| CCGTCACG | 0.186 |
| GAGTGGAA | -0.0792 |
| AGGGCCAA | -0.242 |
| CGTAGTAA | -0.109 |
| ACAGACGA | -0.161 |
| AATGCGAT | -0.127 |
| AATCCAGG | -0.0803 |
| TCCGAGCA | 0.458 |
| GAAGGCAA | -0.139 |
| AAGATATG | -0.0486 |
| ACCTAGCA | -0.0986 |
| CCAAAGGC | -0.117 |
| CCCGCCTA | 0.161 |
| GGATTAAC | 0.0721 |
| CGTCTAGC | -0.122 |
| AATAAGAC | -0.141 |

| Sequence | PBM E-score |
| --- | --- |
| AAGCCCGA | 0.181 |
| ATCGACCA | -0.13 |
| CGAGAATC | 0.109 |
| ACACAATC | -0.12 |
| TGATTGCA | -0.0923 |
| ACCCGCAC | 0.245 |
| CAGGGATC | -0.0642 |
| AGGACTCG | -0.112 |
| GACAAATA | -0.0734 |
| CAGACGGG | -0.00026 |
| AAATCCCG | 0.339 |
| AGGATTGC | -0.0879 |
| CGCCGCTC | 0.133 |
| ATGATATC | -0.075 |
| CCCCACGC | -0.0539 |
| ATGAGCCA | -0.103 |
| ACACTTGG | -0.147 |
| GGTGCCAA | -0.0442 |
| ACTTCGAG | -0.0152 |
| ATCGGCTC | 0.279 |
| AGAATTCC | 0.221 |
| AGACGTTA | -0.194 |

| Sequence | PBM E-score |
| --- | --- |
| GACCTTGA | -0.303 |
| AAACATCA | -0.127 |
| AGGTAGGG | -0.283 |
| TGTCAGAA | -0.224 |
| ACGTTGAA | -0.0231 |
| ATGCAACC | 0.0516 |
| GCTACAAA | -0.0318 |
| CACTATTC | 0.0249 |
| AAGGATGA | -0.207 |
| CATGCACG | -0.167 |
| AAGTTCGG | 0.421 |
| AAGAGATG | -0.13 |
| CTGGACCA | -0.0278 |
| CTAACTTA | 0.0614 |
| GCACCTGC | -0.134 |
| GAACCAGC | -0.015 |
| ATAGTGTG | 0.0766 |
| CACGGATC | 0.35 |
| ACCTAAAT | 0.12 |
| GGGTCTAC | -0.00886 |
| GGTCAGGA | -0.0388 |
| CTGTTAGA | -0.16 |

| Sequence | PBM E-score |
| --- | --- |
| CTTCCTAC | -0.232 |
| GGATAGCA | 0.242 |
| TACCGACA | 0.311 |
| AAATGGTC | 0.0442 |
| AAAGCCAT | -0.0546 |
| CGCATTCC | 0.101 |
| ATCTCAGC | 0.0617 |
| AACATCAG | -0.141 |
| CACGGCAA | 0.199 |
| CACAGGGC | -0.272 |
| CGTGCCCA | 0.00213 |
| TACGGAAA | 0.322 |
| ATCGCAGA | -0.337 |
| ACTAAGCG | -0.0604 |
| ACCCTAAC | -0.034 |
| GTGAGTGA | -0.167 |
| GACTACAC | -0.0519 |
| AATGATAG | 0.0475 |
| ATCGTTTG | 0.0206 |
| GCCAAAGC | -0.121 |
| GTTAATAA | 0.0852 |
